Results on 85 compounds are retold here after PubChem BioAssay AID1645887 (National Center for Advancing Translational Sciences (NCATS), 2021).

“And” between values parts separate entries of the source, which are not always exact repeats. Equal values may be shown once. Hit rate of the full screen: of about 16,000 compounds, about 40 (0.2%) were called active. Another 1% or so got no clear call; they are omitted. The call rests on the fitted dose curve; in most records, active means well fitted activation curve with a large enough effect; inconclusive means small, poorly fitted or top-dose-only effect, or another doubt; inactive means no such curve, though single readings can be large or run the other way. This is one part of the list. Non-standard residues stand in square brackets, D forms with d. Residues, ends and D or L forms follow the SMILES beside them. *: point of attachment. Sta = CC(C)C[C@H](N)[C@@H](O)CC(=O)O; Isovaleryl = CC(C)CC(=O)*
On the % scale 0 is the no-effect control and ±100 the full control effect; potency means the concentration at half of the fitted maximal effect.

The experiment has as its target Rap guanine nucleotide exchange factor 4 (Homo sapiens) (UniProt Q8WZA2). In words: Validation qHTS for agonist of cAMP-regulated guanine nucleotide exchange factor 4 (EPAC2).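 On activation: exchange makes BODIPY-GDP fluorescence drop when released from Rap1B; series mostly up to about 150 µM.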 The following applies: EPAC2 Rap1B BODIPY-GDP exchange, fluorescence; activation: stronger effect = higher value. The essentials: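 Fluorescent exchange assay: 100 nM EPAC2 with 250 nM RAP1B-BODIPY-GDP and 50 uM GDP; compound added, 5 min at room temperature, then read (ex 480/em 540 nm) every 5 min for 30 min. Normalized to 6.5 mM cAMP agonist control.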
Chain of UniProt Q8WZA2 (Q8WZA2 whole entry, looked up): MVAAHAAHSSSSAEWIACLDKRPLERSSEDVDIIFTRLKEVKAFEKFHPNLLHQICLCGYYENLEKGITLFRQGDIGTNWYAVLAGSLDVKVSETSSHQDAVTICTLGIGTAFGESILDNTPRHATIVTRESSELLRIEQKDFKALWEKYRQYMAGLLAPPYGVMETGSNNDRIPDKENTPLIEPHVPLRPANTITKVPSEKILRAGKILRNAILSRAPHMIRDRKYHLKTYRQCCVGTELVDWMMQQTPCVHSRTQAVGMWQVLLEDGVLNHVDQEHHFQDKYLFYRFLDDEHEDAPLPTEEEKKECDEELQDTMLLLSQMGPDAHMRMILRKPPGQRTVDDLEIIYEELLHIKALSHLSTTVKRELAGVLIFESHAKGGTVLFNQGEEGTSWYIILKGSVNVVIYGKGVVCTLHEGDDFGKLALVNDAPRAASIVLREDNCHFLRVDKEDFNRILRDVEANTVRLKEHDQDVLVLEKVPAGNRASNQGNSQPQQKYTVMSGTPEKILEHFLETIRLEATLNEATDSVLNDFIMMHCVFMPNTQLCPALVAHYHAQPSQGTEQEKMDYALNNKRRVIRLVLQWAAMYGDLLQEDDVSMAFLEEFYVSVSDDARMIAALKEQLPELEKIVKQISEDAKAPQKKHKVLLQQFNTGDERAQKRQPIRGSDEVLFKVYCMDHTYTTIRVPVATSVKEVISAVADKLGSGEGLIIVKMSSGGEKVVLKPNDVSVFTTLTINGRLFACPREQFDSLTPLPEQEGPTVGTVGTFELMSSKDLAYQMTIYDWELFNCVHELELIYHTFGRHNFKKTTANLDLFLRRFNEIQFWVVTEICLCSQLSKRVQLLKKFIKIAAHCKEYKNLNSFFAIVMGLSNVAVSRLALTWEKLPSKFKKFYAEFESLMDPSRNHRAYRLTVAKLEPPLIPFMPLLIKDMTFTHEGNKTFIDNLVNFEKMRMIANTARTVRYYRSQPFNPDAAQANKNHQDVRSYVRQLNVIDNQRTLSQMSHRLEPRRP
As for `CCCCCCCCCNC(=O)[C@H](NC(=O)COc1ccccc1)[C@@H]1NC(C(=O)OC)C(C)(C)S1` (stereo not given in full), the activation was inactive: -13.6%.
On the same count and under the same terms, the figure for `C[C@@](N)(C(=O)O)c1ccc(P(=O)(O)O)cc1` is inactive: -13.9%; for `CCc1nc2cc(C(=O)N[C@H]3CCCCNC3=O)cc(NC(=O)c3ccccc3OC)c2n1C` it is inactive: 2.5%; for `C[C@H](O)C(=O)Nc1c(I)c(C(=O)NC(CO)CO)c(I)c(C(=O)NC(CO)CO)c1I` it is inactive: 0.0144%.
Turning to `CCN(CC)CCOc1ccc2nc(N(C)C)sc2c1`, the activation was inactive: 4.04%.
On the same count and under the same terms, the value for `c1ccc(C(NCc2cccnc2)(c2ccccc2)c2ccccc2)cc1` was inactive: 4.44%; that for `Cc1cnc(CNc2nc(-c3cccnc3)nc3ccccc23)cn1` was inactive: -9.05%.
Take `Cc1cccc(C#Cc2ccccc2)n1`: the activation is inactive: -20.2% and inactive: -1.2% and inactive: -39.3%.
Regarding `N[C@H](C(=O)O)c1cc(O)cc(O)c1`, the activation is inactive: 0.734% [middle of 4 runs].
On the same count and under the same terms, the figure for `CNc1cc(-c2c(C)noc2C)ncn1` is inactive: 4.79%.
For the compound `Cc1cnc(SCc2ccccn2)nc1C1CCCN(C(=O)c2noc3c2CCCC3)C1` (stereo not given), the activation is inactive: -13.5%.
Take `Cc1nc2cnc(N3CCNCC3)nc2n(CCc2ccccc2)c1=O`: the activation is inactive: -22.7%.
Consider `CC(C)CC(=O)N[C@H](C(=O)N[C@H](C(=O)N[C@@H](CC(C)C)[C@@H](O)CC(=O)N[C@@H](C)C(=O)N[C@@H](CC(C)C)[C@@H](O)CC(=O)O)C(C)C)C(C)C` (Isovaleryl-VV[Sta]A[Sta]-OH), for which the activation is inactive: 2.78% and inactive: -26.9%.
For the compound `COc1ccccc1CCC(=O)O`, the activation was inactive: -3.93%.
With `CCC(C(=O)O)c1ccccc1` (stereo not given), the activation was inactive: 4.99%.
Turning to `Cc1onc(-c2ccccc2)c1C(=O)NC1C(=O)N2C(C(=O)O)C(C)(C)S[C@@H]12` (stereo not given in full), the activation is inactive: 3.38%.
As for `CO[C@H]1[C@H](NC(=O)c2ccsc2)c2ccccc2C12CCN(Cc1cc3ccccc3o1)CC2`, the activation is inactive: 12.6%.
Regarding `COc1cccc(Cn2c(=O)c(C)nc3cnc(OC)nc32)c1`, the activation is inactive: 1.23%.
In the case of `COCc1c(C(=O)N2CCC(c3ccccc3)CC2)cnn1-c1nccc(-c2cc(C)sc2C)n1`, the activation was inactive: -16.7%.
Turning to `O=c1cc[nH]c(=S)[nH]1`, the activation was inactive: 4.41%.
On the same count and under the same terms, the value for `CCCCC/C=C\C\C=C/C=C/C=C/[C@@H](SC[C@H](N)C(=O)O)[C@@H](O)CCCC(=O)O` was inactive: 0.139%; that for `c1ccc(CCNc2nc(-c3ccccc3)cs2)cc1` was inactive: 4.83%; that for `N[C@H](Cn1ccc(=O)c(O)c1)C(=O)O` was inactive: 0.148%.
With `O=C(O)C1Cc2c([nH]c3ccccc23)C(c2coc3ccccc3c2=O)N1` (stereo not given), the activation was inactive: -2.51%.
The same measure, in the same setting: the value for `CCC(=O)c1c(O)cc(O)cc1O` was inactive: -17.3%.
As to `OCC1O[C@H](O)C(Cl)C(O)C1O` (stereo not given in full), the activation is inactive: 4.22%.
Still for that read-out and setting: the figure for `Cn1cnnc1Sc1ccc(CN2CCOc3ccc(C4=Cc5ccccc5C4)cc3C2)o1` is inactive: -31.1%; for `CC(C)(C)[C@]1(O)CCN2C[C@H]3c4ccccc4CCc4cccc(c43)[C@@H]2C1` it is inactive: -6.66% and inactive: -25.8% and inactive: -38.5%.
Still for that read-out and setting: the value for `NC(=O)[C@H]1O[C@@H](O)[C@H](O)[C@@H](O)[C@@H]1O` was inactive: 7.08%; that for `Nc1nc2[nH]c(=O)cnc2c(=O)[nH]1` was inactive: -33.3%.
For the compound `O=S(=O)(c1ccccc1)N1CCC[C@@]2(CCN(C(c3ccccc3)c3ccccc3)C2)C1`, the activation was inactive: -5.72%.
Take `[N-]=[N+]=NCCN1CCN(Cc2ccccc2)CCC1=O`: the activation is inactive: -4.87%.
Same read-out and setting: the figure for `O=S1(=O)CCO[C@H]2CCCC[C@@H]2N1Cc1ccccc1F` is inactive: -21.5%; for `CCN(CC)CCNC(=O)c1cnn(-c2ncc3c(n2)-c2ccc(OC)cc2CC3)c1C` it is inactive: 0.725%.
The same measure, in the same setting: the value for `C=C(C)C(=O)OC[C@@H]1CCC[N@+]2(C)CCCCC12` (stereo not given in full) was inactive: -24.7%; that for `CCOc1ccccc1O[C@H](c1ccccc1)[C@H]1CNCCO1` was inactive: -17.1%.
Still for that read-out and setting: the figure for `NC(=NCc1ccc(Cl)cc1Cl)NC(=O)c1nc(Cl)c(N)nc1N` is inactive: 5.98% and inactive: -12.2%; for `COc1ccccc1-c1nc(NCCN2CCOCC2)c2ccccc2n1` it is inactive: -12.2%; for `O=C(O)C1CCCN1` (stereo not given) it is inactive: 8.25%.
In the case of `CC1Cc2ccccc2N1NC(=O)c1ccc(Cl)c(S(N)(=O)=O)c1` (stereo not given), the activation is inactive: -0.735% and inactive: 6.37%.
On the same count and under the same terms, the value for `Cc1ccc2c(C)nc(N3CCCC(C(=O)NC(C)(C)CO)C3)nc2c1` (stereo not given) was inactive: 1.38%.
Still for that read-out and setting: the value for `CCN1/C(=C/C=C/c2sc3ccccc3[n+]2CC)Sc2ccccc21` was inactive: -2.36%; that for `COc1ccccc1-c1ccnc(-n2ncc(C(=O)N(C)CCc3ccccn3)c2C)n1` was inactive: -8.25%; that for `CCOCC(O)COc1ccc(NC(=O)CC[S+](C)C)cc1` (stereo not given) was inactive: 18.3%.
Regarding `CCCCCCCCCCCCCCCCCC(=O)OCC(C)O` (stereo not given), the activation was inactive: -8.91%.
Still for that read-out and setting: the figure for `COc1cc(/C=C(\C#N)C(N)=O)cc(CSc2nc3ccccc3s2)c1O` is inactive: -1.99% and inactive: 8.92% and inactive: 1.02%.
With `CC(=O)c1ccc(OCC(=O)N2CCCCC2)cc1`, the activation was inactive: -10%.
Still for that read-out and setting: the value for `FC(F)(F)c1ccccc1-c1cc(NCc2ccccc2)ncn1` was inactive: -30.8%; that for `C[C@@H]1C[C@@H](CC(=O)NCC2Cc3cccc(-c4ccncc4)c3O2)NC(=S)N1` (stereo not given in full) was inactive: -1.33%; that for `CCOc1ccc(/C=C/C(=O)c2cccs2)cc1` was inactive: 0.839%.
Still for that read-out and setting: the value for `CCN(C)C(=O)Oc1cccc([C@H](C)N(C)C)c1` was inactive: 1.95%; that for `Nc1ccc(S(=O)(=O)Nc2ccnn2-c2ccccc2)cc1` was inactive: -2.92% and inactive: 1.03% and inactive: -16.3%.
The same measure, in the same setting: the value for `CCNc1ncc2nc(C)c(=O)n(CCOC)c2n1` was inactive: -9.89%; that for `COC(=O)C(c1ccccc1Cl)N1CCc2sccc2C1` (stereo not given) was inactive: -17.5% and inactive: 2.43%.
As to `Cc1ccccc1-c1nc(N2CCN(C)CC2)c2ccccc2n1`, the activation is inactive: -7.11%.
On the same count and under the same terms, the figure for `O=C(OC1Cc2c(O)cc(O)cc2OC1c1cc(O)c(O)c(O)c1-c1c(C2Oc3cc(O)cc(O)c3CC2O)cc(O)c(O)c1O)c1cc(O)c(O)c(O)c1` (stereo not given) is inactive: -9.51%; for `N#Cc1cccc(-c2nccc(NCc3cccs3)n2)c1` it is inactive: 1.38%; for `COCCn1c(=O)c(C)nc2cnc(N3CCNCC3)nc21` it is inactive: -26.8%.
Still for that read-out and setting: the value for `COc1ccc(Oc2ncc3nc(-c4cccs4)c(=O)n(-c4ccccc4)c3n2)cc1` was inactive: 0.425%; that for `C=CC(C)(O)CC1[C@@]2(C)CCCC(C)(C)C2CC[C@]1(C)O` (stereo not given in full) was inactive: -28.7%; that for `CNCC(O)c1cccc(O)c1` (stereo not given) was inactive: -7.27%.
The same measure, in the same setting: the value for `O=C(NCC(O)CO)c1c(I)c(C(=O)NCC(O)CO)c(I)c(N(CCO)C(=O)CO)c1I` (stereo not given) was inactive: -1.97%.
`COc1ccccc1N1CCN(CCCCNS(=O)(=O)c2cccc3c(N(C)C)cccc23)CC1`: the activation was inactive: 0.394%.
Consider `NCCNC(=O)c1ncsc1-c1cccc(F)c1`, for which the activation is inactive: 12.1%.
For the compound `Cc1cc(CC(=O)O)n(C)c1C(=O)c1ccc(Cl)cc1`, the activation was inactive: -4.28% and inactive: 4.55%.
The same measure, in the same setting: the figure for `Cc1ccc(C(=O)O[C@H](C(=O)O)[C@@H](OC(=O)c2ccc(C)cc2)C(=O)O)cc1` (tested in a mixture with another compound) is inactive: -33.7%.
For the compound `Cc1cc2nc3c(=O)[nH]c(=O)nc-3n(CC(O)C(O)C(O)CO)c2cc1C` (stereo not given), the Potency was active: 89.1 µM.
For `CO[C@@]1(NC(=O)CSC[C@@H](N)C(=O)O)C(=O)N2C(C(=O)O)=C(CSc3nnnn3C)CS[C@@H]21`, the activation is inactive: -0.944%.
Same read-out and setting: the value for `COc1c(O)cccc1O` was inactive: -15.9%; that for `CCC1CN2CCc3cc(OC)c(OC)cc3C2CC1CC1NCCc2cc(OC)c(OC)cc21` (stereo not given) was inactive: -0.527%.
For `Cc1ccccc1C1(CC(=O)N2CCC[C@H]2C(N)=O)CC(=O)N(C2CCCC2)C1=O` (stereo not given in full), the activation is inactive: -7.12%.
Turning to `Cc1cccc(CNc2ncnc3ccc(-c4ccc(C(=O)N(C)C)cc4)cc23)c1`, the activation is inactive: -21.2%.
Same read-out and setting: the value for `CN(C)C1C(=O)C(C(N)=O)=C(O)[C@@]2(O)C(=O)C3=C(O)c4c(O)ccc(Cl)c4C(O)[C@H]3C[C@@H]12` (stereo not given in full) was inactive: 5.21%; that for `CC(=O)Nc1ncc([N+](=O)[O-])s1` was inactive: -9.87%; that for `O=S(=O)(NCc1nnc2n1CCN(Cc1ccccc1Cl)CC2)c1ccccc1` was inactive: -9.6%.
On to `CS(=O)(=O)Nc1cccc(-c2cc(NCc3cccs3)ncn2)c1`, for which the activation is inactive: -2.46%.
Consider `OCC1O[C@@H](OC2C(O)C(CO)O[C@@]2(CO)O[C@@H]2OC(CO)C(O)C(O)C2O)C(O)C(O)C1O` (stereo not given in full), for which the activation was inactive: -4.83%.
In the case of `Cc1cc2nc(N3CCCN(Cc4cccn4-c4ncccn4)CC3)nc(C)c2cc1C`, the activation was inactive: 4.48%.
On the same count and under the same terms, the value for `CCOC(=O)C1CCCN(C(=O)c2cnn(-c3ncc4c(n3)-c3ccccc3CCC4)c2C2CC2)C1` (stereo not given) was inactive: -12.8%.
As to `Cc1noc(C)c1-c1ccc2ncnc(N3CCC(C(=O)O)CC3)c2c1`, the activation was inactive: -13.5%.
Take `Clc1ccccc1-c1nccc(-n2ccnc2)n1`: the activation was inactive: -17.4%.
For `CC12CCC(CC1)C(C)(C)O2`, the activation is inactive: -14% and inactive: -7.73%.
As for `CC(=O)N1CCC[C@@]2(CCN(Cc3ccccc3)C2)C1`, the activation was inactive: 0.674%.
On the same count and under the same terms, the value for `Cc1cc(-c2ccnc(-n3ncc(C(=O)NCC4COCCO4)c3C3CC3)n2)c(C)s1` (stereo not given) was inactive: -1.41%; that for `O=C(NCc1nnc2n1CCN(Cc1cccc(Cl)c1)CC2)c1cccc(F)c1` was inactive: -4.67%.
